{
  "source": "PubChem BioAssay AID686971",
  "about": "(National Center for Advancing Translational Sciences (NCATS), 2013)",
  "note": "Hit rate of the full screen: of about 360,000 compounds, about 7,500 (2.1%) were called active. The inconclusive results got no clear call from the source; some entries with a clear call stand among them for comparison. Calls come from the whole dose curve; as a rule, active = well fitted cell-killing curve with a large enough effect; inconclusive = small, poorly fitted or top-dose-only effect, or effect the other way, or another doubt; inactive = no such curve, though single readings can be large or run the other way. No potency is given beside an inconclusive call; the fits are too rough.",
  "data": [
    {"experiment": "qHTS for induction of synthetic lethality in tumor cells producing 2HG: qHTS for the HT-1080-IDH1KD cell line; note: potency is the fitted concentration of half-maximal effect; tags give direction and shape of the fitted curve;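 for activity, negative = toxicity: 0% = DMSO wells and -100% = cell-free medium wells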", "conditions": "HT-1080 IDH1 knockdown viability, ATP luminescence, 48 h; activity, negative = toxicity: at 46.1 µM (top of the series) unless noted", "procedure,_shortened": "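Assay cells: HT-1080 with IDH1 knockdown, 750 per well, RPMI/5% FBS. Exposure: 48 h at 37 °C following 2 h pre-incubation. Read: CellTiter-Glo luminescence; fitted concentration-response, curve class assigned.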", "values": [
      {"molecule": "CC(Oc1ccccc1)C(=O)N1CCC2(CC1)CC(=O)c1ccccc1O2", "note": "(stereo not given)", "Potency": "inactive"},
      {"molecule": "CC(C)c1ccc(/C=C2\\SC(=S)N(CC(=O)NCCCN3CCOCC3)C2=O)cc1", "Potency": "inconclusive [cytotoxic, partial curve]"},
      {"molecule": "Cc1ccc(C2=CC(C)(c3ccc(C)cc3)Nc3nc(C(F)(F)F)nn32)cc1", "note": "(stereo not given)", "Potency": "inconclusive [cytotoxic, partial curve]"},
      {"molecule": "NC(=O)c1cccc(-c2ccnc3c2CC(C(=O)Nc2ccc(Cl)cc2)O3)c1", "note": "(stereo not given)", "Potency": "inconclusive [cytotoxic, partial curve]"},
      {"molecule": "Cn1c(=N)n(CC(=O)c2ccc(Br)s2)c2ccccc21", "Potency": "inconclusive [cytotoxic, single point]"},
      {"molecule": "O=C(C1c2ccccc2Oc2ccccc21)N1CCN(c2ccc(Cl)cc2)CC1", "Potency": "inconclusive [cytotoxic, partial curve]"},
      {"molecule": "Cc1cccc(C(=O)NC2CCN(C(=O)NCc3ccccc3)CC2)c1", "Potency": "inactive"},
      {"molecule": "O=C1NC(Cc2ccc(O)cc2)c2nc3cc(Cl)ccc3c(=O)n2-c2cc(Cl)ccc21", "note": "(stereo not given)", "Potency": "inconclusive [cytotoxic, single point]"},
      {"molecule": "Cc1csc(C)[n+]1CC(=O)c1ccccc1", "Potency": "inactive"},
      {"molecule": "COc1ccc(-c2cnc3c(NC=O)cc(-c4ccoc4)cn23)cc1OC", "Potency": "inconclusive [cytotoxic, partial curve]"},
      {"molecule": "CC(C)c1ccc(OCC(O)Cn2cnc3ccccc32)cc1", "note": "(stereo not given)", "Potency": "inconclusive [cytotoxic, partial curve, poor fit]"},
      {"molecule": "COC(=O)c1cc2c(s1)-c1ccccc1OC2", "Potency": "inactive"},
      {"molecule": "Cc1ccc(Cn2c(SCC(=O)N3CC(=O)Nc4ccccc43)nc3ccccc3c2=O)cc1", "activity, negative = toxicity": "inconclusive: -31.6% [cytotoxic]"},
      {"molecule": "Cc1ccc(OCCCCNC(C)(C)C)c([N+](=O)[O-])c1", "Potency": "inactive"},
      {"molecule": "COc1cccc(C(C)(O)c2nc(-c3ccc(C)c(C)c3)cs2)c1", "note": "(stereo not given)", "Potency": "inconclusive [cytotoxic, single point]"},
      {"molecule": "Cc1ccc(C(=O)Nn2c(N)c(S(=O)(=O)c3ccc(C)cc3)c3nc4ccccc4nc32)cc1", "Potency": "inconclusive [cytotoxic, single point]"},
      {"molecule": "CC(=O)c1cccc(NC(=O)CNC(=O)c2sc3ccccc3c2Cl)c1", "Potency": "inconclusive [cytotoxic, single point]"},
      {"molecule": "COc1cc(NC(=O)CNc2cccc(S(=O)(=O)N3CCOCC3)c2)cc(OC)c1", "Potency": "inactive"},
      {"molecule": "O=C(Nc1nnc(C(F)(F)F)s1)C1COc2ccccc2O1", "note": "(stereo not given)", "Potency": "active: 23.1 µM"},
      {"molecule": "O=C(NN1C(=O)C2C3CCC(O3)C2C1=O)c1ccco1", "note": "(stereo not given)", "Potency": "inactive"}
    ]}
  ]
}
